Measured values from the antibiotic and cytotoxicity screens of Wong et al. (2023).
This is one part of the list.

How the values were obtained:
HSkMC = human skeletal muscle cells; test: cytotoxicity call (relative viability < 0.9); conditions: 10 µM
HepG2 = test: cytotoxicity call (relative viability < 0.9); conditions: 10 µM
S. aureus RN4220 = test: growth inhibition call (relative growth <= 0.2); conditions: 50 µM

| Structure (SMILES) | cytotoxicity call (HSkMC) | cytotoxicity call (HepG2) | growth inhibition call (S. aureus RN4220) |
| --- | --- | --- | --- |
| C[C@@H]1CN([C@@H](C)CO)C(=O)c2cc(NS(=O)(=O)c3ccccc3)ccc2O[C@@H]1CN(C)Cc1ccc(Cl)c(Cl)c1 | active | active | inactive |
| C[C@@H]1CN([C@H](C)CO)C(=O)c2ccccc2-c2ccccc2CO[C@@H]1CN(C)Cc1ccc(C(F)(F)F)cc1 | inactive | inactive | inactive |
| Cc1ccc(S(=O)(=O)N(C)C[C@H]2OCCCC[C@H](C)Oc3ccc(NC(=O)Nc4cccc5ccccc45)cc3C(=O)N([C@H](C)CO)C[C@@H]2C)cc1 | inactive | inactive | inactive |
| C[N+](C)(C)C[C@@H](O)CC(=O)O | inactive | inactive | inactive |
| COc1cccc(NC(=O)N2C[C@@H](O)COC[C@@H]3O[C@@H](CC(=O)NC4Cc5ccccc5C4)CC[C@H]32)c1 | inactive | inactive | inactive |
| C[C@H](CO)N1C[C@H](C)[C@H](CN(C)S(=O)(=O)c2ccc(F)cc2)OCCCC[C@H](C)Oc2ccc(NC(=O)NC3CCCCC3)cc2C1=O | inactive | active | inactive |
| C[C@@H]1CN([C@@H](C)CO)C(=O)c2cccc(NS(=O)(=O)c3ccc(F)cc3)c2O[C@H]1CN(C)S(=O)(=O)c1ccccc1 | inactive | inactive | inactive |
| C[C@H]1CCCCO[C@@H](CN(C)S(=O)(=O)c2ccccc2)[C@@H](C)CN([C@@H](C)CO)C(=O)c2cc(NS(=O)(=O)c3cn(C)cn3)ccc2O1 | inactive | inactive | inactive |
| Nc1nc(=O)c2c([nH]1)NC[C@H](CNc1ccc(C(=O)N[C@@H](CCC(=O)O)C(=O)O)cc1)N2C=O | inactive | inactive | inactive |
| C[C@@H]1CCCCO[C@@H](CN(C)C(=O)Cc2ccccc2)[C@H](C)CN([C@H](C)CO)C(=O)c2cc(NC(=O)CCC(F)(F)F)ccc2O1 | inactive | inactive | inactive |
| COc1ccc(NC(=O)Nc2ccc3c(c2)C(=O)N([C@@H](C)CO)C[C@H](C)[C@H](CN(C)C(=O)Nc2ccc(OC)cc2)OCCCC[C@H](C)O3)cc1 | inactive | inactive | inactive |
| C[C@@H]1CN([C@@H](C)CO)C(=O)c2cc(NC(=O)Cc3ccccc3)ccc2O[C@@H](C)CCCCO[C@H]1CN(C)C(=O)c1ccccc1 | inactive | inactive | inactive |
| CC(=O)N1CCCN(S(=O)(=O)c2cn(C)c(=O)n(C)c2=O)CC1 | inactive | inactive | inactive |
| C[C@H]1CN([C@@H](C)CO)C(=O)c2cc(NC(=O)Nc3cccc4ccccc34)ccc2O[C@@H]1CN(C)Cc1ccncc1 | inactive | inactive | inactive |
| COc1cccc(OC)c1NC(=O)N1[C@@H]2CC[C@@H](C2)[C@H]1c1nc2cccc(OCc3ccc(F)cc3)c2[nH]1 | inactive | inactive | inactive |
| CC(C)CC#Cc1ccc2c(c1)O[C@@H](CN(C)C(=O)Cc1ccccn1)[C@@H](C)CN([C@@H](C)CO)S2(=O)=O | inactive | inactive | inactive |
| CCC[C@H](NC(=O)[C@@H]1[C@H]2CCC[C@H]2CN1C(=O)[C@@H](NC(=O)[C@@H](NC(=O)c1cnccn1)C1CCCCC1)C(C)(C)C)C(=O)C(=O)NC1CC1 | inactive | active | inactive |
| C[C@H](CO)N1C[C@H](C)[C@@H](CN(C)S(=O)(=O)c2ccc(F)cc2)OCCCC[C@H](C)Oc2ccc(NC(=O)Nc3cccc4ccccc34)cc2C1=O | inactive | inactive | inactive |
| Cc1ccnc2ccccc12 | inactive | inactive | inactive |
| Cc1noc(C)c1NC(=O)Nc1ccc2c(c1)C(=O)N([C@@H](C)CO)C[C@H](C)[C@@H](CN(C)S(=O)(=O)c1cccs1)OCCCC[C@@H](C)O2 | inactive | inactive | inactive |
| Cc1noc(C)c1NC(=O)N(C)C[C@@H]1Oc2ccc(NC(=O)CCCN(C)C)cc2C(=O)N([C@@H](C)CO)C[C@H]1C | inactive | inactive | inactive |
| C[C@@H]1CCCCO[C@@H](CN(C)CC2CCCCC2)[C@@H](C)CN([C@H](C)CO)C(=O)c2cc(NC(=O)Cc3ccccc3)ccc2O1 | inactive | inactive | inactive |
| C[C@H](CO)N1C[C@H](C)[C@@H](CN(C)Cc2ccc(Oc3ccccc3)cc2)Oc2ccc(NS(=O)(=O)c3cccs3)cc2C1=O | inactive | inactive | inactive |
| C[C@H]1CN([C@@H](C)CO)C(=O)c2cc(NC(=O)Nc3cccc4ccccc34)ccc2O[C@H]1CN(C)C(=O)Nc1cccc2ccccc12 | inactive | inactive | inactive |
